The other results are listed elsewhere or left out. Repeats are few or missing, and single values can be far off.
Columns and labels:
Experiment in all cases: cell count relative to DMSO control; melanoma cells; higher = more viable cells
Conditions in all cases: library dose: low library concentration; 72 h
MeWo = tested on: MeWo
RPMI7951 = tested on: RPMI7951
RVH-421 = tested on: RVH-421
SkMel28 = tested on: SkMel28
SkMel30 = tested on: SkMel30
SkMel5 = tested on: SkMel5
UACC257 = tested on: UACC257
UACC62 = tested on: UACC62
WM115 = tested on: WM115
WM1716 = tested on: WM1716
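Note: cell number obtained by counting DAPI-stained nuclei in high-throughput microscope images with image analysis software, screen run in 1,536-well plates.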

Row | SMILES | cell count (MeWo) [%] | cell count (RPMI7951) [%] | cell count (RVH-421) [%] | cell count (SkMel28) [%] | cell count (SkMel30) [%] | cell count (SkMel5) [%] | cell count (UACC257) [%] | cell count (UACC62) [%] | cell count (WM115) [%] | cell count (WM1716) [%]
1 | N#Cc1c(O)c2c(-c3ccc(-c4ccccc4O)cc3)csc2[nH]c1=O + Cn1cc(/C=C2\C(=O)Nc3cccnc32)c2ccccc21 [GW441756] (first compound 2 µM, partner dose 0.4 µM) | 101 | 113 | 81.8 | 74.1 | 99.8 | 84.5 | 86.9 | 96 | 97.7 | 119
2 | Oc1cc(-c2nc(-c3ccccc3)[nH]c2-c2ccncc2)ccc1Cl + CCCCCCCCCCCC1=C(O)C(=O)C=C(O)C1=O [Embelin] (first compound 0.2 µM, partner dose 1.2 µM) | 113 | 98.3 | 113 | 81.6 | 94.5 | 104 | 88 | 80.3 | 97.3 | 107
3 | O=S(=O)(c1ccccc1)N(CC(F)(F)F)c1ccc(C(O)(C(F)(F)F)C(F)(F)F)cc1 + Oc1cc(-c2nc(-c3ccccc3)[nH]c2-c2ccncc2)ccc1Cl [L779450] (first compound 1.4 µM, partner dose 0.2 µM) | 103 | 96.2 | 114 | 88.8 | 89.1 | 69.7 | 88.8 | 61.5 | 91.8 | 105
4 | N#Cc1c(O)c2c(-c3ccc(-c4ccccc4O)cc3)csc2[nH]c1=O + CC(C)CCN1c2nc(Nc3cc(F)c(O)c(F)c3)ncc2N(C)C(=O)C1C [BID1870] (first compound 2 µM, partner dose 0.2 µM) | 102 | 109 | 112 | 79.8 | 105 | 102 | 92.6 | 92.4 | 97.6 | 97.9
5 | Oc1cc(-c2nc(-c3ccccc3)[nH]c2-c2ccncc2)ccc1Cl + Cn1cc(/C=C2\C(=O)Nc3cccnc32)c2ccccc21 [GW441756] (first compound 0.2 µM, partner dose 0.4 µM) | 113 | 119 | 64.9 | 73 | 80.7 | 102 | 83.3 | 52.6 | 73.8 | 120
6 | Oc1nc(-c2ccc(C(F)(F)F)cc2)nc2c1CSCC2 + c1cc(-c2cnn3cc(-c4ccc(OCCN5CCCCC5)cc4)cnc23)ccn1 [Dorsomorphin] (first compound 2 µM, partner dose 0.4 µM) | 105 | 97.1 | 83.1 | 77.8 | 94.8 | 82.6 | 78.4 | 114 | 91.6 | 66.3
7 | Oc1cc(-c2nc(-c3ccccc3)[nH]c2-c2ccncc2)ccc1Cl + Cc1cc([N+](=O)[O-])ccc1NS(=O)(=O)c1cc(Cl)ccc1Cl [FH535] (first compound 0.2 µM, partner dose 1 µM) | 93.8 | 119 | 79.6 | 63.4 | 90.5 | 96 | 73.7 | 67.7 | 74.8 | 104
8 | Oc1cc(-c2nc(-c3ccccc3)[nH]c2-c2ccncc2)ccc1Cl + COc1cc(N2CCC(N3CCN(C)CC3)CC2)ccc1Nc1ncc(Cl)c(Nc2ccccc2S(=O)(=O)C(C)C)n1 [NVP-TAE684] (first compound 0.2 µM, partner dose 0.08 µM) | 91.7 | 99.2 | 81 | 64.4 | 79.1 | 94.9 | 75.9 | 65.7 | 68.9 | 101
9 | COc1ccc(COc2ccc(Cc3cnc(N)nc3N)cc2OC)cc1 + Cc1cc([N+](=O)[O-])ccc1NS(=O)(=O)c1cc(Cl)ccc1Cl [FH535] (first compound 1 µM, partner dose 1 µM) | 91.8 | 109 | 99.4 | 80.8 | 89.8 | 86.8 | 89.2 | 89.6 | 86.7 | 96.9
10 | COc1ccc(COc2ccc(Cc3cnc(N)nc3N)cc2OC)cc1 + O=C1NC(=O)/C(=C/c2ccc(-c3ccc(F)cc3O)o2)S1 [AS252424] (first compound 1 µM, partner dose 1 µM) | 95.9 | 113 | 121 | 93.9 | 92.1 | 108 | 82.1 | 107 | 98.3 | 97
11 | O=C(O)C(=O)Nc1sc2c(c1C(=O)O)CCNC2 + O=c1cc(-c2cccc3c2Sc2ccccc2S3)oc(N2CCOCC2)c1 [KU55933] (first compound 1.66667 µM, partner dose 1 µM) | 100 | 107 | 106 | 85.2 | 108 | 102 | 85.2 | 106 | 100 | 105
12 | N#Cc1c(O)c2c(-c3ccc(-c4ccccc4O)cc3)csc2[nH]c1=O + O=C(O)C(=O)Nc1sc2c(c1C(=O)O)CCNC2 [TCS401] (first compound 2 µM, partner dose 1.66667 µM) | 123 | 111 | 108 | 110 | 84.5 | 112 | 111 | 119 | 106 | 105
13 | COc1ccc2c(c1)CCC1C2CCC2(C)C(NCCCCCCN3C(=O)C=CC3=O)CCC12 (stereo not given) + COc1cc(N2CCC(N3CCN(C)CC3)CC2)ccc1Nc1ncc(Cl)c(Nc2ccccc2S(=O)(=O)C(C)C)n1 [NVP-TAE684] (first compound 0.4 µM, partner dose 0.08 µM) | 62.4 | 75.6 | 105 | 109 | 95.7 | 95.9 | 74.6 | 102 | 98 | 87
14 | Oc1nc(-c2ccc(C(F)(F)F)cc2)nc2c1CSCC2 + COc1cc(N2CCC(N3CCN(C)CC3)CC2)ccc1Nc1ncc(Cl)c(Nc2ccccc2S(=O)(=O)C(C)C)n1 [NVP-TAE684] (first compound 2 µM, partner dose 0.08 µM) | 99.3 | 87.4 | 104 | 91.4 | 114 | 74.7 | 86 | 95.5 | 90.5 | 66.1
15 | CCN(CC)CCCCNc1ncc2cc(-c3cc(OC)cc(OC)c3)c(NC(=O)NC(C)(C)C)nc2n1 + Oc1cc(-c2nc(-c3ccccc3)[nH]c2-c2ccncc2)ccc1Cl [L779450] (first compound 0.1 µM, partner dose 0.2 µM) | 98.5 | 114 | 79 | 84.7 | 106 | 101 | 68.2 | 67.8 | 81.8 | 111
16 | COc1ccc2c(c1)CCC1C2CCC2(C)C(NCCCCCCN3C(=O)C=CC3=O)CCC12 (stereo not given) + COc1cc2ncnc(Nc3ccc(Oc4ccccc4)cc3)c2cc1OC [SrcI1] (first compound 0.4 µM, partner dose 2 µM) | 90.8 | 69.8 | 121 | 82.8 | 93.5 | 104 | 91.9 | 105 | 92.8 | 93.3
17 | COC(=O)c1sccc1S(=O)(=O)Nc1ccc(Nc2ccccc2)cc1OC + O=C(O)C(=O)Nc1sc2c(c1C(=O)O)CCNC2 [TCS401] (first compound 1 µM, partner dose 1.66667 µM) | 90.2 | 100 | 87.8 | 89.1 | 99.8 | 86.6 | 78.8 | 100 | 100 | 106
18 | O=C(O)C(=O)Nc1sc2c(c1C(=O)O)CCNC2 + c1cc(-c2cnn3cc(-c4ccc(OCCN5CCCCC5)cc4)cnc23)ccn1 [Dorsomorphin] (first compound 1.66667 µM, partner dose 0.4 µM) | 107 | 97 | 112 | 88.3 | 69.6 | 93.7 | 92.2 | 101 | 98.1 | 114
19 | COc1cc2ncnc(Nc3ccc(Oc4ccccc4)cc3)c2cc1OC + COc1cc(N2CCC(N3CCN(C)CC3)CC2)ccc1Nc1ncc(Cl)c(Nc2ccccc2S(=O)(=O)C(C)C)n1 [NVP-TAE684] (first compound 2 µM, partner dose 0.08 µM) | 82.6 | 114 | 97 | 90.1 | 113 | 86.7 | 82.2 | 117 | 97.6 | 109
20 | COc1ccc(-c2ccc3c(N4CCOCC4)nc(N4C[C@@H](C)O[C@@H](C)C4)nc3n2)cc1CO + Oc1nc(-c2ccc(C(F)(F)F)cc2)nc2c1CSCC2 [XAV939] (first compound 0.02 µM, partner dose 2 µM) | 78.9 | 86.3 | 85.7 | 91.9 | 86.1 | 83.9 | 81.4 | 84.7 | 79.2 | 55.4
21 | CCN(CC)CCCCNc1ncc2cc(-c3cc(OC)cc(OC)c3)c(NC(=O)NC(C)(C)C)nc2n1 + Cn1cc(/C=C2\C(=O)Nc3cccnc32)c2ccccc21 [GW441756] (first compound 0.1 µM, partner dose 0.4 µM) | 106 | 94.6 | 112 | 83.8 | 98.5 | 84.5 | 83.8 | 86.9 | 95.4 | 101
22 | COc1ccc(-c2ccc3c(N4CCOCC4)nc(N4C[C@@H](C)O[C@@H](C)C4)nc3n2)cc1CO + COc1cc2ncnc(Nc3ccc(Oc4ccccc4)cc3)c2cc1OC [SrcI1] (first compound 0.02 µM, partner dose 2 µM) | 78.9 | 115 | 113 | 85.8 | 87.7 | 103 | 83.5 | 107 | 98.3 | 104
23 | COc1ccc(-c2ccc3c(N4CCOCC4)nc(N4C[C@@H](C)O[C@@H](C)C4)nc3n2)cc1CO + O=C(O)C(=O)Nc1sc2c(c1C(=O)O)CCNC2 [TCS401] (first compound 0.02 µM, partner dose 1.66667 µM) | 95.7 | 109 | 101 | 78.9 | 101 | 83.3 | 69.8 | 83.5 | 91.8 | 88.3
24 | CCN(CC)CCCCNc1ncc2cc(-c3cc(OC)cc(OC)c3)c(NC(=O)NC(C)(C)C)nc2n1 + COc1cc2ncnc(Nc3ccc(Oc4ccccc4)cc3)c2cc1OC [SrcI1] (first compound 0.1 µM, partner dose 2 µM) | 88.8 | 104 | 104 | 83.2 | 83.2 | 102 | 113 | 96.4 | 110 | 106
